Experimental data reported in patent US7741443 (CRUCELL HOLLAND B V, dated 2010).

T1: human C-type lectin (human, UniProt Q5QGZ9 1-265)
T1 construct: also called antigen recognized by SC02-357; protein encoded by the 7H10-A cDNA insert
T1 sequence: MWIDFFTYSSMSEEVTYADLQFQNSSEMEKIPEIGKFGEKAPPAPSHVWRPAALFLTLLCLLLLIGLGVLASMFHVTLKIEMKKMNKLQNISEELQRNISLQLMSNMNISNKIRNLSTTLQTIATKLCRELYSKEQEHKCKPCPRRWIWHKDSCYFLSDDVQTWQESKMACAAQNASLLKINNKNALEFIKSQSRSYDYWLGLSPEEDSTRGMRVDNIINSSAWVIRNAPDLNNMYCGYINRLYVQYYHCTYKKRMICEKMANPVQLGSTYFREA


Legend:
human C-type lectin [1] = biological target: T1, human C-type lectin; test: flow cytometry of phage antibody on 293T cells transfected with plasmid 7H10-A (human C-type lectin) or mock; anti-M13 biotin and streptavidin-PE (FL2-H)
human C-type lectin [2] = biological target: T1, human C-type lectin; test: flow cytometry, phage antibody on 293T cells transfected with plasmid 7H10-A (data not shown)

| Binder | binding result (human C-type lectin [1]) | binding result (human C-type lectin [2]) |
| --- | --- | --- |
| SC02-357 phage antibody (scFv, also called scFv SC02-357) scFv: QVQLQESGPGLVKPSETLSLTCVVSGGSISSSNWWSWVRQPPGKGLEWIGEIYHSGSPDYNPSLKSRVTISVDKSRNQFSLKLSSVTAADTAVYYCAKVSTGGFFDYWGQGTLVTVSSGGGGSGGGGSGGGGSEIELTQSPSSLSASVGDRVTIT[letters of about 80 residues not shown]FGPGTKVEIK | binds | – |
| SC02-378 phage antibody (scFv, Same light chain as SC02-357; also called scFv SC02-378) scFv: QVQLQESGPGLVKPSETLSLTCVVSGGSISSSNWWSWVRQPPGKGLEWIGEIYHSGSPNYNPSLKSRVTISVDKSKNQFSLKLSSVTAADTAVYYCARSSSGGFFDYWGQGTLVTVSSGGGGSGGGGSGGGGSEIELTQSPSSLSASVGDRVTIT[letters of about 80 residues not shown]FGQGTKVEIKRAAA | – | binds |
| SC02-161 phage antibody (scFv, Same light chain as SC02-357; also called scFv SC02-161) scFv: QVQLQESGPGLVKPSETLSLTCVVSGGSISSSNWWSWVRQPPGKGLEWIGEIYHSGSPNYNPSLKSRVTISVDKSKNQFSLKLSSVTAADTAVYYCARQTTAGSFDYWGQGTLVTVSSGGGGSGGGGSGGGGSEIELTQSPSSLSASVGDRVTIT[letters of about 80 residues not shown]FGQGTKVEIKRAAA | – | binds |
